Assay results as given in PMC7999658, “Characterization of P-Glycoprotein Inhibitors for Evaluating the Effect of P-Glycoprotein on the Intestinal Absorption of Drugs” (Pharmaceutics, 2021).

Molecular target: T1, P-gp (Mus musculus, UniProt P21447)
T1 construct: the intestinal absorption of paclitaxel is restricted by P-gp expressed in the intestinal epithelium; tissue Taconic Farms; host or cells: small intestine of living male WT FVB mice (in vivo)
Experiment: Effect of WK-X-34 or LY335979 pretreatment on pharmacokinetics of oral paclitaxel in WT mice (P-S difference method)
Type: in vivo
Conditions: WK-X-34 40 mg/kg po, paclitaxel 20 mg/kg po
Protocol: Food and water were available ad libitum.
Mean residence time (MRT), total body clearance (CLtot), and distribution volume at the steady state (Vdss) were calculated using the following equations:MRT = AUMC/AUC(8) CLtot = Dose/AUC(9) Vdss = MRT × CLtot(10)

T1 sequence (P21447 whole entry): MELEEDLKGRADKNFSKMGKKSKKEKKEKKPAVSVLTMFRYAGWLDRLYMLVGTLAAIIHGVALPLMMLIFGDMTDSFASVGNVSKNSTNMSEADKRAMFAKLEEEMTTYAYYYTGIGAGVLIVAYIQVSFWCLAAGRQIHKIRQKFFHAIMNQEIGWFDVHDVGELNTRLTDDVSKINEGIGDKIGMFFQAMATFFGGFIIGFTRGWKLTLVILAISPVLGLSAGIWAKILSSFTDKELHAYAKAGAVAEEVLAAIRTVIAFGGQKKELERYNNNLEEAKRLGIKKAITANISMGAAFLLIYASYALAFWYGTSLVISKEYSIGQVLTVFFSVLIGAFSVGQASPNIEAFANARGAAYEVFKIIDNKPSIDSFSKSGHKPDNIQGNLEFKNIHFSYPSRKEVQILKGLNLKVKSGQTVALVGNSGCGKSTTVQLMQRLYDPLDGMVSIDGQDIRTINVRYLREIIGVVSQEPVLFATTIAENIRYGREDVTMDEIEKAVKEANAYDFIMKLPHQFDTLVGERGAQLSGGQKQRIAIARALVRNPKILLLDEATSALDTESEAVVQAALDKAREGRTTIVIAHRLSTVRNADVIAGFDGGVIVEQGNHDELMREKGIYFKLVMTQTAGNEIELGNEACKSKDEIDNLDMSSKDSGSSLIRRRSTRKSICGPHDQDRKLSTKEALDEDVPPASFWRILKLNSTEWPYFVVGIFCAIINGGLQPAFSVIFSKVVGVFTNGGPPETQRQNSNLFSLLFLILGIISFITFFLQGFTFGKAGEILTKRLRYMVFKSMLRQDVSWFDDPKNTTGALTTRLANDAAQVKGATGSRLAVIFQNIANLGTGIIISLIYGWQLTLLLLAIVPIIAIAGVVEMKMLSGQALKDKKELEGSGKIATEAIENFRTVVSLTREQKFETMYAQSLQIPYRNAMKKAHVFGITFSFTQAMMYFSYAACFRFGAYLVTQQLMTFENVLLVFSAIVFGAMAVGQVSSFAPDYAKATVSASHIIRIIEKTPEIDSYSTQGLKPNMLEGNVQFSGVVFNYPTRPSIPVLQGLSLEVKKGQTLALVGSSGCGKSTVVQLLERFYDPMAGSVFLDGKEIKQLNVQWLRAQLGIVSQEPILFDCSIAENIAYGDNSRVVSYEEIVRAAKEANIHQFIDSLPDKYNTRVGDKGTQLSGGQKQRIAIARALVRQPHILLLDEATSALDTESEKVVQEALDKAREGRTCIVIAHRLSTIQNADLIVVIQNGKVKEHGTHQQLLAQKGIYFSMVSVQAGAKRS

Q: For `COc1ccc(C(=O)Nc2ccccc2C(=O)Nc2ccc(CCN3CCc4cc(OC)c(OC)cc4C3)cc2)cc1OC` [WK-X-34, N-(2-(4-[2-(6,7-Dimethoxy-3,4-dihydro-1H-isochinolin-2-yl)-ethyl]phenylcarbamoyl)phenyl)-3,4-dimethoxybenzamide], which “AUCsys of paclitaxel, pretreated WT mice versus non-treated mdr1a/1b KO mice” value is on record?
A: approximately three

Q: And the “FaFg of paclitaxel, pretreated WT mice relative to non-treated mdr1a/1b KO mice” value (in words)?
A: only half as high
